Data on 56 compounds can be found in PubChem BioAssay AID488969 (Vanderbilt High Throughput Screening Facility, 2010).

The structures appear in SMILES notation. In all, about 110,000 compounds were measured (“z-score”: median about -0.1, highest 2% from about 2 on). This is one part of the list.

The target of the test is Metabotropic glutamate receptor 8 (Rattus norvegicus) (UniProt P70579). The test is described as follows: mGluR8 Gi/Go-coupled signaling modulation – cell-based, rat, thallium flux, HTS, primary screen (AID 488969). Particulars: HEK293 rat mGluR8, GIRK (G protein-gated inwardly rectifying potassium channel) thallium flux, FluoZin2; at 10 µM; stronger effect = higher value; submaximal glutamate (EC20) added with thallium.
Chain of UniProt P70579 (P70579 whole entry, looked up): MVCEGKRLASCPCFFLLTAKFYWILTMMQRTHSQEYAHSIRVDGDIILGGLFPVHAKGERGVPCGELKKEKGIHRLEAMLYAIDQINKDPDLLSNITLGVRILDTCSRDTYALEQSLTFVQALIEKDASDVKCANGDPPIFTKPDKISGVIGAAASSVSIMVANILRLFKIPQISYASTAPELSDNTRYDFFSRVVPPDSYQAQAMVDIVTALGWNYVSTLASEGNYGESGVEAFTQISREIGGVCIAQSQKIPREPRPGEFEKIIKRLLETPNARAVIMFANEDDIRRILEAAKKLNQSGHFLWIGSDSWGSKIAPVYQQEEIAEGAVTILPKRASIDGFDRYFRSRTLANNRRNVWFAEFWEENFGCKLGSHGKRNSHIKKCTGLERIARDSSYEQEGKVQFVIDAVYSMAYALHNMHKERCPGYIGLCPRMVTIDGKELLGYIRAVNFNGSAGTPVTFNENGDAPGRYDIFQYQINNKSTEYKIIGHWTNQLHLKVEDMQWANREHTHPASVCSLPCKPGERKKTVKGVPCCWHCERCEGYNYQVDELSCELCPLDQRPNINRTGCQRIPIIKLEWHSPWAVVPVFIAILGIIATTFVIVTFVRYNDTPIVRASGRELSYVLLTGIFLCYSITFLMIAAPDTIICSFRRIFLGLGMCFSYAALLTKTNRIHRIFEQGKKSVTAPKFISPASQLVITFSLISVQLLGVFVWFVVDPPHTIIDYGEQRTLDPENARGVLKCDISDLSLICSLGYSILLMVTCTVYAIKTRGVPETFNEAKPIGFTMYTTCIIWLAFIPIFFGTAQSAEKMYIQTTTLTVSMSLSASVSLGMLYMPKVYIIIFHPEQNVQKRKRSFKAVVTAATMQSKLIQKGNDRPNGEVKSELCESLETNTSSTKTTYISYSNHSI
Regarding `COc1ccc(C2Nc3ccccc3C(=O)N2c2ccccc2)cc1CSc1ccccn1` (stereo unspecified), the z-score was -0.13.

As to `N#CC(c1ccc(Cl)cc1)c1ncc(C(F)(F)F)cc1Cl` (stereo unspecified), the z-score was -0.0701.

On to `Cc1cccc(CN(C)CCc2ccccn2)c1`, for which the z-score is -0.645.

As for `COc1ccc(C(CC(=O)O)NC(=O)c2ccccc2)cc1OC` (stereo unspecified), the z-score was -0.105.

`O=C(Nc1nc(-c2ccc(Cl)s2)cs1)c1ccccc1`: the z-score worked out at 0.171.

The compound `CN(/N=C/c1cccnc1)c1cnn(-c2ccc(F)c(Cl)c2)c(=O)c1Cl` returned a z-score of -0.0102.

The compound `COc1ccc(-n2cccc2/C=C2/NC(=O)N(c3cccc(Cl)c3)C2=O)cc1` showed a z-score of 1.07.

In the case of `COCCCNC(=O)c1ccc(CNS(=O)(=O)c2ccc(NC(C)=O)cc2)cc1`, the z-score was 0.124.

Compound `CCOc1ccc(C(C)=O)cc1N1C(=O)C2C3C=CC(O3)C2C1=O` (stereo unspecified) displayed a z-score of -0.01.

On to `CCOC(=O)C1CCCN(C(=O)C2CCCN(S(C)(=O)=O)C2)C1` (stereo unspecified), for which the z-score stood at 0.0209.

`CCN(CC)CCN1C(=O)C(=O)/C(=C(/O)c2cnn(-c3ccccc3)c2C)C1c1ccc(C)o1` (stereo unspecified): the z-score was determined as 0.00665.

In the case of `Cc1ccc(S(=O)(=O)NCCSc2ccccc2)cc1[N+](=O)[O-]`, the z-score is -0.0158.

As for `CCN(CC)S(=O)(=O)c1ccc(N/N=C/c2cc(OC)c(OC)cc2OC)nc1`, the z-score is -0.171.

Compound `Cc1ccc(C(=O)N2CCN(C(=O)c3ccccc3)C2c2ccc(N(C)C)cc2)cc1` (stereo unspecified) showed a z-score of 0.17.

Regarding `CCCc1nc(SCC(=O)N2CCc3ccccc32)c2c(C)c(C)sc2n1`, the z-score is -0.214.

Compound `CCN(CC)C(=O)c1ccc(C(=O)c2ccccc2)cc1` registered a z-score of -0.631.

Turning to `Cn1cccc1/C=C1\CC(C(C)(C)C)C/C(=C\c2cccn2C)C1=O` (stereo unspecified), the z-score was -0.348.

Compound `O=C1NC(c2ccccc2)=N/C1=C/c1ccco1` came in with a z-score of -0.338.

Compound `CCCn1nnc(NC(=O)c2cccc(OCc3ccccc3)c2)n1` yielded a z-score of 0.00303.

The compound `COCCN(C(=S)Nc1cccc(OC)c1)C1CCN(C(C)C)CC1` had a z-score of -0.31.

With `COc1ccc(OC)c(S(=O)(=O)n2nc(C)cc2C)c1`, the z-score amounted to 0.244.

`O=C(CN1CCSC1=NCc1ccccc1)c1ccccc1` showed a z-score of 0.153.

The compound `CCCCCc1ccc(-c2ccc(/C=C/C(N)=O)cc2)nc1` yielded a z-score of -0.563.

Consider `COc1ccc(N2C(=O)CCC(C(=O)N3CCCCC3)C2c2ccc(OC)c(OC)c2)cc1` (stereo unspecified), for which the z-score is 0.367.

Consider `CC(=O)c1sc(NC(=O)c2ccc(F)c(F)c2)nc1C`, for which the z-score is 0.507.

Consider `CCSc1nc(C(F)(F)F)cc(=O)n1-c1ccccc1`, for which the z-score was -0.0745.

Compound `CCC(C)NC(=O)C1c2cc(OC)c(OC)cc2C(=O)N(C)C1c1cccs1` (stereo unspecified) came in with a z-score of -0.125.

As for `CCCN1C2CCCC1CC(NC(=O)c1cc(OC)c(OC)c(OC)c1)C2` (stereo unspecified), the z-score was -0.439.

For `CCC(CC)NC(=O)CCc1nc2ccccc2c(=O)[nH]1`, the z-score was -0.168.

The compound `Cc1nnc(SCC(=O)N2CCOCC2)s1` registered a z-score of 0.532.

`Fc1ccc(-n2[nH]nnc2=S)cc1N1CCCC1` registered a z-score of -0.553.

`Cc1ccc(Br)cc1S(=O)(=O)N1CCN(c2ccccc2)CC1` returned a z-score of -0.421.

`COc1cccc2cc(C(=O)n3ccc(C)n3)c(=O)oc12` yielded a z-score of -1.33.

Compound `O=C(c1ccccc1)N(Cc1ccc(F)cc1)C1CCS(=O)(=O)C1` (stereo unspecified) yielded a z-score of -0.0413.

Compound `CCCNC(=O)c1ccccc1NC(=O)C1COc2ccccc2O1` (stereo unspecified) displayed a z-score of -0.394.

The compound `CCCC(=O)Nc1nc2n(n1)C(c1ccccc1)CC(=O)N2` (stereo unspecified) registered a z-score of 0.108.

Consider `CC(C)(C)n1nnnc1C(c1cccs1)N1CCN(c2ccccc2)CC1` (stereo unspecified), for which the z-score is -0.223.

`NNc1nc2sc3c(c2c(=O)[nH]1)CCc1ccccc1-3` yielded a z-score of 0.414.

`S=c1[nH]nc(C2CC2)n1Cc1ccco1` showed a z-score of 0.0104.

For `Cc1cc(C)c(OCC(=O)Nc2ccc3c(c2)OCO3)cc1C`, the z-score was -0.119.

The compound `Cc1cc(C)n(-c2ccc(C(=O)Nc3nc4ccccc4s3)cc2)n1` came in with a z-score of -0.388.

As for `O=C1/C(=C/c2cccnc2)Oc2cc(OS(=O)(=O)c3ccc(Cl)cc3)ccc21`, the z-score turned out to be 0.0689.

`COc1cccc(C(C(=O)NC2CCCC2)N(Cc2ccccc2OC)C(=O)c2ccco2)c1` (stereo unspecified) showed a z-score of -0.323.

`O=C1OC(c2cccc([N+](=O)[O-])c2)C2(CCCC2)C(=O)C12CCCCC2` (stereo unspecified) returned a z-score of -0.0355.

Take `O=C(O)c1ccc(CSc2ncn[nH]2)cc1`: the z-score worked out at 0.0804.

In the case of `CCCOc1ccc(Br)cc1/C=N/O`, the z-score is -0.606.

`CSC(=N/N=C(\N)c1cnccn1)SC`: the z-score was -0.178.

`CC(C)C(NC(=O)OCc1ccccc1)C(=O)NC1CCCCC1` (stereo unspecified): the z-score amounted to 0.0443.

For `Nc1c(N(CCO)C(=O)COc2ccc(Cl)cc2)c(=O)[nH]c(=O)n1Cc1ccccc1`, the z-score is -0.167.

Consider `CCOC(=O)C1CCN(C(=O)c2ccccc2NC(=O)c2ccc(Br)cc2)CC1`, for which the z-score was -0.129.

`CCOC(=O)COc1ccc2c(c1)c(C(=O)OCC)c(C)n2CC` came in with a z-score of -2.56.

In turn, `CCN1/C(=C2/OC(=S)N(C)C2=O)Sc2ccccc21` had a z-score of 1.02.

In turn, `CSC1=C(C#N)C(c2cccs2)CC(=O)N1C` (stereo unspecified) showed a z-score of -0.0432.

`Cn1cccc1Cc1nnc(SCC(=O)Nc2ccc3c(c2)OCCO3)n1CCc1ccccc1` had a z-score of 1.59.

Consider `COc1ccc2[nH]c3c(N4CCC(O)(c5cccc(C(F)(F)F)c5)CC4)ncnc3c2c1`, for which the z-score was -0.461.

Turning to `CN(C)S(=O)(=O)c1ccc2oc(SCC(N)=O)nc2c1`, the z-score was found to be 0.202.
